For 42 sequences, binding signal results are on record in paper PMC7819943, “Rice protein-binding microarrays: a tool to detect cis-acting elements near promoter regions in rice”.

The list shows a part of the results.

This assay deals with T1, OsWOX13 (Oryza sativa, UniProt Q5QMM3 1-267).
T1 sequence: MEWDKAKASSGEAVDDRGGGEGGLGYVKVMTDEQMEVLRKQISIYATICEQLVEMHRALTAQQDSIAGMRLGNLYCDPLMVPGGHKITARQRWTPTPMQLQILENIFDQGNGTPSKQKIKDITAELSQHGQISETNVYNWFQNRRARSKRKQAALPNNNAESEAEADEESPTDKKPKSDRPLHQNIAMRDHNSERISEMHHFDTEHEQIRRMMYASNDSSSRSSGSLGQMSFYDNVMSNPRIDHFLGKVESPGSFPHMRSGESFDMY
Description: protein-binding microarray (RPBM); PBS, 2% BSA, 51.3 ng/ul salmon testes DNA, 50 uM zinc acetate, 200 nM TF, 25 C, 1 h; high values mean tight binding. To be noted: protein: recombinant; tags: N-terminal polyhistidine and DsRed monomer fusion (pET32a); label: CyDye5-dUTP incorporated in the synthesized complementary strand; 3' TTTTT single-stranded linker to array surface; dsDNA, one strand shown. In a few lines: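 The binding signal for each feature is its fluorescence intensity in arbitrary units. An Axon 4000B scanner was used to read a custom Agilent array that had been made double-stranded with Cy5-dUTP primer extension, blocked with 2% BSA, incubated at 25 °C for 1 h with 200 nM protein in PBS, 2% BSA, salmon testes DNA and 50 µM zinc acetate, and washed. The protein was an N-terminal polyhistidine–DsRed transcription factor fusion from E. coli BL21-CodonPlus, purified on Ni–NTA.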
“ATCCATCCAATCAATCTCCAGTAGTATTGTACTAATCTCTCGGAGTCACCTAGTGCAG”: the binding signal was 20100 fluorescence intensity (a.u.). On to “GTATTGTCAATTACCTTGTTGGTGCTGCTGGATTCTGTACCGGAGTCACCTAGTGCAG”, for which the binding signal was 12100 fluorescence intensity (a.u.). As to “TACAAATTTATAATGGCATGGTTCTAATTTTCTCTTAGAACGGAGTCACCTAGTGCAG”, the binding signal was 12200 fluorescence intensity (a.u.). For “ACGCCATGATTTGACAATGTGATGCTACAGTAAACATTTGCGGAGTCACCTAGTGCAG”, the binding signal was 23300 fluorescence intensity (a.u.). On to “ATTAGATTTATATTCCTTCTGTCTATATTCTGGACAGGTCCGGAGTCACCTAGTGCAG”, for which the binding signal is 18300 fluorescence intensity (a.u.). With “GTCTGATAAGTCTTTGATTTGCTAGTACCGGCATCGCCTGCGGAGTCACCTAGTGCAG”, the binding signal is 14700 fluorescence intensity (a.u.). Then “GACACTGACATACATAATCTAATCAAATTATGTACTACCCCGGAGTCACCTAGTGCAG”, with 21200 fluorescence intensity (a.u.). As for “TTTAATTATATTATCACTGACATGTGGGTCCCACTATATGCGGAGTCACCTAGTGCAG”, the binding signal was 34000 fluorescence intensity (a.u.). On to “TATCTCAATAATAATGTTAACGGATTAGATTCCACGCTCTCGGAGTCACCTAGTGCAG”, for which the binding signal was 3380 fluorescence intensity (a.u.). On to “TTCGAGTTCTTCTTAATTGGAGTTCTTGGAGCAGCATCGGCGGAGTCACCTAGTGCAG”, for which the binding signal is 3590 fluorescence intensity (a.u.). Regarding “TAAACAGATCCTAATTACTCCTGCACACAACGCGCACGTCCGGAGTCACCTAGTGCAG”, the binding signal is 7980 fluorescence intensity (a.u.). With “CCGCACTCTATTATTGTATTGATTAGCTTGTGTCATTCGCCGGAGTCACCTAGTGCAG”, the binding signal was 20500 fluorescence intensity (a.u.). Take “TCTAATCAATCAGAAGATAGACGAGAGATGAGCTGCTTCTCGGAGTCACCTAGTGCAG”: the binding signal was 34900 fluorescence intensity (a.u.). “TAAGTCAAATAAGCCAATCAACGGATTTTCTTTAGTTGAACGGAGTCACCTAGTGCAG”: the binding signal is 17600 fluorescence intensity (a.u.). In the case of “ATTTTAATTATTTAATCATATATTTGTAAATTTAATTAAACGGAGTCACCTAGTGCAG” it was 27900 fluorescence intensity (a.u.); in that of “ATCCAAATTAATATGGATGTTAATAAATCTAGGCATATATCGGAGTCACCTAGTGCAG”, 11500 fluorescence intensity (a.u.). “TCGTGTAAAAGCCCTGATTGCTAGGGTGAAACTTATAATGCGGAGTCACCTAGTGCAG”: the binding signal was 4320 fluorescence intensity (a.u.). “CAAATCAATTATCAGGTTGCAGATTATGCTTTTAGGAAGTCGGAGTCACCTAGTGCAG”: the binding signal is 18800 fluorescence intensity (a.u.). In the case of “GGTGTATGTGACTTCCAAATTAACATATGAAAGTGATGGCCGGAGTCACCTAGTGCAG” it was 3660 fluorescence intensity (a.u.). On to “CGATAATGACACGGAATTATCTTACTAAGCCCGGATTAATCGGAGTCACCTAGTGCAG”, for which the binding signal is 12100 fluorescence intensity (a.u.). For “CCCTCCATTCCAAATTGATCTACATATTTCATAGGTACACCGGAGTCACCTAGTGCAG”, the binding signal is 4100 fluorescence intensity (a.u.). Consider “CTTTATTTGTCGTCCAGTCTAATTTTCGTCCCTTGACCGCCGGAGTCACCTAGTGCAG”, for which the binding signal was 4020 fluorescence intensity (a.u.). Then “TGGATAATAAATCTCACTAATTAATTAATAGTACTAAGGACGGAGTCACCTAGTGCAG”, with 22000 fluorescence intensity (a.u.); and “ACGTGACTCAATTGATTAGGTTTCTTAAAGTGGAATCAGCCGGAGTCACCTAGTGCAG”, with 23200 fluorescence intensity (a.u.); and “ATAATGATTAATGAAATACTTAGTGGTTGACCTTGTGCAGCGGAGTCACCTAGTGCAG”, with 21800 fluorescence intensity (a.u.).

In the case of “GACGCGCGCGATCGTCAATCATGCAGACGATCGATCACATCGGAGTCACCTAGTGCAG”, the binding signal was 7620 fluorescence intensity (a.u.). Consider “ATTGAATGACAATAGAATGAAGCTTGAAGTTACATCTAGACGGAGTCACCTAGTGCAG”, for which the binding signal is 4030 fluorescence intensity (a.u.). In the case of “TACTAAAAGAAATTAAGATTATTCATTAATTTTAGCTATCCGGAGTCACCTAGTGCAG”, the binding signal is 5410 fluorescence intensity (a.u.). In the case of “TACATAGTCATCAATCATCACATATCAGCAACACATATCACGGAGTCACCTAGTGCAG” it was 14800 fluorescence intensity (a.u.); in that of “CCAGCCATGATTGTGGCGCCGTGCTCCTTCTCCTTCGTTCCGGAGTCACCTAGTGCAG”, 5750 fluorescence intensity (a.u.); in that of “ACTGATAGTAAATGAATTACTAAAGTCACACATATTATTGCGGAGTCACCTAGTGCAG”, 6140 fluorescence intensity (a.u.). Turning to “TTCATCATCAGATTAATTATTAAAACGGACTATTTACTCTCGGAGTCACCTAGTGCAG”, the binding signal is 4380 fluorescence intensity (a.u.). For the sequence “GCTTTGATTGGCCTGATCTTTCGGTGAGTTGAGATAACTACGGAGTCACCTAGTGCAG”, the binding signal is 42700 fluorescence intensity (a.u.).

“TAAATTGCCCAATCACAAGATATCTACCACTGTAGGCTGTCGGAGTCACCTAGTGCAG”: the binding signal is 24600 fluorescence intensity (a.u.).

In the case of “ATGGTTGATTGATTGCATATATTTGAACAAATGATCTTTGCGGAGTCACCTAGTGCAG”, the binding signal is 65500 fluorescence intensity (a.u.). With “TCCAACGGTGCCGCTTAATTAGTGATTAATTATCCTAATTCGGAGTCACCTAGTGCAG”, the binding signal was 16400 fluorescence intensity (a.u.).

Consider “TGGAACTGTGCAAATTAAATTATGTGATATAGTGTGATTACGGAGTCACCTAGTGCAG”, for which the binding signal is 13300 fluorescence intensity (a.u.). Regarding “TTAAAACTTAATTAGTTATACTTCCTTCGTACTCATAGAGCGGAGTCACCTAGTGCAG”, the binding signal was 17500 fluorescence intensity (a.u.). As to “AAACCTAATTAATCATGCGCAAATGGCTTTCTTGTTTTGCCGGAGTCACCTAGTGCAG”, the binding signal was 22900 fluorescence intensity (a.u.). Turning to “ATTAATTTCACTTTATTCTTCTTATAGATTACTACTAGTTCGGAGTCACCTAGTGCAG”, the binding signal is 10100 fluorescence intensity (a.u.). “GCTAATTGCACCCATCAATTCAACTCCTCCGAACCCACAACGGAGTCACCTAGTGCAG”: the binding signal is 30000 fluorescence intensity (a.u.). For the sequence “GGTTGATTGATCCGCCACGCAAGCTTTGCTACCTAACCATCGGAGTCACCTAGTGCAG”, the binding signal was 40500 fluorescence intensity (a.u.).
